According to the supplement of paper PMC4166925:
± gives the standard deviation of the averaged measurements. Over roughly 33,000 sequences, “E-score (dimensionless, -0.5 to 0.5)” has its median near -0.049; the highest 2% begin near 0.37. The list shows a part of the results.

These sequences were tested on T1, PmTbr T-box DNA-binding domain (GST fusion) (assay: PBM E-score of 8-mer (E-score (dimensionless, -0.5 to 0.5)); Tbr is Tbrain of the sea star Patiria miniata (Pm) or the sea urchin Strongylocentrotus purpuratus (Sp); higher = stronger binding preference; most listed sequences are background and not binding sites). Conditions: the construct has about 5 more residues each side.
T1 sequence: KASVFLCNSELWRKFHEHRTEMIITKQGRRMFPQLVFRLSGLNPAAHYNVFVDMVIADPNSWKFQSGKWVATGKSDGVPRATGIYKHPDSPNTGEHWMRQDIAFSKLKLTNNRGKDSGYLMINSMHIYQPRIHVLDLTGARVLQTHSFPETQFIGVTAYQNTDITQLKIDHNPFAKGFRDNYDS
Procedure: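 Universal protein-binding microarray (Agilent AMADID 016060, 60-bp probes with a 35-bp variable region) incubated with 200 nM GST-fused Patiria miniata Tbr T-box DNA-binding domain (residues 272-466) in PBS pH 7.5. Scored for every ungapped 8-mer (given with its reverse complement) by the Universal PBM Analysis Suite as E-score (modified Wilcoxon-Mann-Whitney enrichment, range -0.5 to 0.5; >0.45 counts as bound) and Z-score of median probe intensity. Two replicate arrays (datasets 1 and 2).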

For TAAGTCGA, which “PBM E-score of 8-mer” value is on record?
Its value is 0.072 ± 0.01.

With ATCCGGGC as the sequence, how does the “PBM E-score of 8-mer” value read?
The value was -0.232 ± 0.081.

AATCCCCG was tested. Which “PBM E-score of 8-mer” value did it give?
The value was 0.00787 ± 0.01.

With AAAGGTCC as the sequence, how does the “PBM E-score of 8-mer” value read?
The value was 0.011 ± 0.046.

AGAGAGTG was tested. Which “PBM E-score of 8-mer” value did it give?
Its value is 0.181 ± 0.014.

Which “PBM E-score of 8-mer” value does the source give for ACCTTGGA here?
Its value is 0.163 ± 0.014.

For CTGGATAA, which “PBM E-score of 8-mer” value is on record?
Its value is -0.277 ± 0.12.

With GCTTTTTA as the sequence, how does the “PBM E-score of 8-mer” value read?
The value was 0.0226 ± 0.011.

Which “PBM E-score of 8-mer” value does the source give for ACTTATGA here?
The value was -0.0342 ± 0.025.

ACGTGAGA was tested. Which “PBM E-score of 8-mer” value did it give?
The value was 0.349 ± 0.0086.

ACCTCCAG was tested. Which “PBM E-score of 8-mer” value did it give?
The value was 0.045 ± 0.12.

How did the “PBM E-score of 8-mer” value turn out when CGACAGGC was run?
The value was 0.147 ± 0.021.

Which “PBM E-score of 8-mer” value does the source give for ACGGGTAG here?
The value was -0.0399 ± 0.058.

For ATGTACGA, which “PBM E-score of 8-mer” value is on record?
Its value is -0.16 ± 0.11.

With CAGGAACG as the sequence, how does the “PBM E-score of 8-mer” value read?
The value was 0.0653 ± 0.082.

How did the “PBM E-score of 8-mer” value turn out when AAAAGCGT was run?
The value was 0.158 ± 0.03.

AAGCTATC was tested. Which “PBM E-score of 8-mer” value did it give?
Its value is -0.0115 ± 0.049.

How did the “PBM E-score of 8-mer” value turn out when GCCATGAC was run?
The value was -0.174 ± 0.022.

With GTAATTCA as the sequence, how does the “PBM E-score of 8-mer” value read?
The value was -0.105 ± 0.0081.

For CTGAGAGA, which “PBM E-score of 8-mer” value is on record?
The value was -0.0217 ± 0.023.

For ATCAGTGC, which “PBM E-score of 8-mer” value is on record?
Its value is 0.0179 ± 0.007.

How did the “PBM E-score of 8-mer” value turn out when GTAACCGA was run?
The value was -0.0185 ± 0.015.

ATGAAGTG was tested. Which “PBM E-score of 8-mer” value did it give?
Its value is 0.257 ± 0.023.

CATCTTGC was tested. Which “PBM E-score of 8-mer” value did it give?
The value was 0.0758 ± 0.065.

How did the “PBM E-score of 8-mer” value turn out when ACCGCAAT was run?
The value was -0.163 ± 0.02.

How did the “PBM E-score of 8-mer” value turn out when CCACAGCA was run?
The value was -0.0937 ± 0.059.

How did the “PBM E-score of 8-mer” value turn out when AGCGTAAA was run?
Its value is -0.209 ± 0.049.

How did the “PBM E-score of 8-mer” value turn out when CAAAAATC was run?
The value was 0.0131 ± 0.062.

For ATGCTAAA, which “PBM E-score of 8-mer” value is on record?
Its value is -0.00788 ± 0.027.

Which “PBM E-score of 8-mer” value does the source give for AACACGCG here?
Its value is 0.231 ± 0.01.

Which “PBM E-score of 8-mer” value does the source give for AAAATTTG here?
The value was -0.166 ± 0.14.

With GGTGCGTA as the sequence, how does the “PBM E-score of 8-mer” value read?
Its value is 0.2616 ± 0.00075.

With ATGGTGTA as the sequence, how does the “PBM E-score of 8-mer” value read?
The value was 0.104 ± 0.021.

Which “PBM E-score of 8-mer” value does the source give for GGAGCACA here?
The value was -0.215 ± 0.046.

AGCGCTCC was tested. Which “PBM E-score of 8-mer” value did it give?
The value was -0.215 ± 0.0042.

How did the “PBM E-score of 8-mer” value turn out when GCGGATCA was run?
Its value is 0.0406 ± 0.016.

With TCTCACCA as the sequence, how does the “PBM E-score of 8-mer” value read?
The value was 0.372 ± 0.011.

Which “PBM E-score of 8-mer” value does the source give for CATATGCC here?
The value was -0.0326 ± 0.037.

Which “PBM E-score of 8-mer” value does the source give for ATTTGCCA here?
The value was 0.127 ± 0.041.

For AGATAACT, which “PBM E-score of 8-mer” value is on record?
The value was 0.0753 ± 0.022.

Which “PBM E-score of 8-mer” value does the source give for AAGGGCCC here?
Its value is -0.255 ± 0.033.

ATCACGCG was tested. Which “PBM E-score of 8-mer” value did it give?
Its value is 0.334 ± 0.023.

AAAAGGTG was tested. Which “PBM E-score of 8-mer” value did it give?
The value was 0.442 ± 0.012.

ATACTAGG was tested. Which “PBM E-score of 8-mer” value did it give?
The value was -0.155 ± 0.056.

How did the “PBM E-score of 8-mer” value turn out when GATGATAA was run?
Its value is 0.0128 ± 0.072.

ATTCAAGG was tested. Which “PBM E-score of 8-mer” value did it give?
Its value is -0.256 ± 0.037.

AACTGAGA was tested. Which “PBM E-score of 8-mer” value did it give?
Its value is 0.067 ± 0.014.

CACAAGCA was tested. Which “PBM E-score of 8-mer” value did it give?
The value was -0.0188 ± 0.0073.

How did the “PBM E-score of 8-mer” value turn out when GGGCAACA was run?
The value was 0.0502 ± 0.002.

With ACCAGCGT as the sequence, how does the “PBM E-score of 8-mer” value read?
Its value is 0.0104 ± 0.016.

For CCCAATCG, which “PBM E-score of 8-mer” value is on record?
The value was -0.137 ± 0.0034.

Which “PBM E-score of 8-mer” value does the source give for AGCGTACA here?
Its value is -0.121 ± 0.064.

Which “PBM E-score of 8-mer” value does the source give for ATCATGGG here?
The value was -0.396 ± 0.021.

For AGAAGTTA, which “PBM E-score of 8-mer” value is on record?
The value was -0.0507 ± 0.083.

CCCCCGAG was tested. Which “PBM E-score of 8-mer” value did it give?
Its value is -0.224 ± 0.038.

Which “PBM E-score of 8-mer” value does the source give for AGGCCCGG here?
Its value is -0.264 ± 0.041.

How did the “PBM E-score of 8-mer” value turn out when GGTAAGAC was run?
Its value is -0.236 ± 0.028.

How did the “PBM E-score of 8-mer” value turn out when CTCAAATA was run?
Its value is -0.321 ± 0.072.

ACAAGGCC was tested. Which “PBM E-score of 8-mer” value did it give?
The value was -0.0113 ± 0.076.

Which “PBM E-score of 8-mer” value does the source give for AGCTGGAT here?
The value was -0.000465 ± 0.0011.

CTTATACA was tested. Which “PBM E-score of 8-mer” value did it give?
Its value is 0.022 ± 0.13.

CTGATTTA was tested. Which “PBM E-score of 8-mer” value did it give?
The value was -0.123 ± 0.0066.

Which “PBM E-score of 8-mer” value does the source give for AAACTGGT here?
The value was -0.0358 ± 0.013.

CCTTGAAC was tested. Which “PBM E-score of 8-mer” value did it give?
The value was -0.129 ± 0.072.

GACACTGA was tested. Which “PBM E-score of 8-mer” value did it give?
Its value is 0.157 ± 0.016.

ACCAATCC was tested. Which “PBM E-score of 8-mer” value did it give?
Its value is 0.0411 ± 0.059.

Which “PBM E-score of 8-mer” value does the source give for GAGTGTAC here?
Its value is -0.079 ± 0.061.

GTAGCACA was tested. Which “PBM E-score of 8-mer” value did it give?
Its value is 0.227 ± 0.0045.

Which “PBM E-score of 8-mer” value does the source give for CACGTCCG here?
The value was 0.26 ± 0.0099.

For AGAGTTTA, which “PBM E-score of 8-mer” value is on record?
Its value is -0.0178 ± 0.0059.

Which “PBM E-score of 8-mer” value does the source give for AGAGACAT here?
The value was -0.101 ± 0.019.

For AGTGACGA, which “PBM E-score of 8-mer” value is on record?
The value was 0.358 ± 0.016.

Which “PBM E-score of 8-mer” value does the source give for CGGACGGA here?
The value was -0.135 ± 0.016.

Which “PBM E-score of 8-mer” value does the source give for GGGGTTAA here?
The value was -0.255 ± 0.032.

Which “PBM E-score of 8-mer” value does the source give for ATGTTCCG here?
Its value is -0.156 ± 0.036.

AACCGGAT was tested. Which “PBM E-score of 8-mer” value did it give?
Its value is -0.219 ± 0.071.

Which “PBM E-score of 8-mer” value does the source give for ACAATTAG here?
Its value is 0.162 ± 0.018.

For CCCGCACC, which “PBM E-score of 8-mer” value is on record?
The value was 0.3 ± 0.031.

GATCATCC was tested. Which “PBM E-score of 8-mer” value did it give?
The value was -0.114 ± 0.025.

With CTCGCGCC as the sequence, how does the “PBM E-score of 8-mer” value read?
The value was 0.401 ± 0.013.

With AGCGACTA as the sequence, how does the “PBM E-score of 8-mer” value read?
The value was 0.0742 ± 0.067.

Which “PBM E-score of 8-mer” value does the source give for ACATCCTA here?
The value was -0.147 ± 0.0064.

For CAAGGCTA, which “PBM E-score of 8-mer” value is on record?
The value was -0.0345 ± 0.043.

With ACTCTTTA as the sequence, how does the “PBM E-score of 8-mer” value read?
Its value is 0.0498 ± 0.13.

Which “PBM E-score of 8-mer” value does the source give for GTGCGTGA here?
The value was 0.311 ± 0.013.

With AATGCGTA as the sequence, how does the “PBM E-score of 8-mer” value read?
The value was -0.0844 ± 0.072.
